Consider 63 compounds from PubChem BioAssay (NCI).

Where “and” joins values, the source holds several entries; their conditions need not be identical. Identical values can stand only once.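 Following 48 hours of exposure in 96-well plates, responses at five concentrations were used to interpolate endpoints linearly. At the GI50, growth is halved. TGI: total growth inhibition.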

In the experiment the test system is NCI-H322M lung. The experiment can be described thus: NCI-60 cell line screen, 48 h.
Turning to `CC(C)(C)c1n[nH]c(=S)n(/N=C/c2ccc(F)c(Oc3ccccc3)c2)c1=O`, the GI50 is 22 µM and the TGI was determined as 90.4 µM.

Compound `CCOc1ccc2nc(NC(=O)c3c/c(=N\NC(=O)C[N+](C)(C)C)c4ccc(O)cc4o3)sc2c1` returned a TGI of 23.8 µM.

For `CCOC(=O)C1Oc2ccc([N+](=O)[O-])c3c2C1(O)CCC3` (configuration not stated), the TGI is above 100 µM.

In turn, `NC(N)=N/N=C/c1c(-c2ccccc2)nc2n1ccc1nc(-c3ccccc3)c(/C=N/N=C(N)N)n12` returned a TGI of 90 µM.

Regarding `CC(=O)OC1CCn2nnc(CO[Si](C)(C)C(C)(C)C)c21` (configuration not stated), the TGI is above 100 µM.

Compound `COc1ccc(NC(=O)/C(=N\NC(=O)C[n+]2ccccc2)c2c(O)c3ccc(O)cc3oc2=O)c([N+](=O)[O-])c1` displayed a TGI above 100 µM.

On to `COc1ccc(-c2c3c(nc4nc(SCCc5ccccc5)nc(N)c24)CCCC3)cc1OC`, for which the TGI is above 100 µM.

As to `C1=NCCNCCN=Cc2ccc(cc2)OCc2cccc(n2)COc2ccc1cc2`, the TGI was above 100 µM.

The compound `Cc1cc(C)c(C2=NOC(c3ccccc3)(c3cc(=O)n(-c4ccccc4)s3)O2)c(C)c1` (configuration not stated) came in with a TGI above 100 µM.

In turn, `CC1CCCc2c(C#N)c(N)nc(-c3ccc(Cl)cc3)c21` (configuration not stated) gave a TGI of 64.5 µM.

In turn, `CN(/N=C(\C(=O)O)c1ccccc1)C1=NCCCN1` returned a TGI above 100 µM.

On to `O=S(=O)(c1ccccc1)C(CN1CCCCC1)S(=O)(=O)c1ccccc1`, for which the TGI is above 100 µM.

As for `C=CCOC1OC(CO[Si](C)(C)C(C)(C)C)C(OCc2ccccc2)C(OCc2ccccc2)C1OCc1ccccc1` (configuration not stated), the TGI is above 100 µM.

Take `COc1ccccc1NC(=O)/C(Cc1nc2ccc([N+](=O)[O-])cc2[nH]c1=O)=N\NC(=O)C[N+](C)(C)C`: the TGI was above 100 µM.

`CCCCCC/C=C\CCCCCCCCCc1cccc(O)c1C(=O)O` showed a TGI above 100 µM.

As to `Cc1cc2c3ccc(C)[n+](C)c3ccc2n1C`, the GI50 was 12.6 µM and the TGI turned out to be 61.4 µM.

Consider `Cn1c2c(cc(S(=O)(=O)c3ccccc3)c1=O)CCc1c-2cnn1-c1ccc(Cl)cc1`, for which the GI50 was 1.57 µM and the TGI is 5.54 µM.

As to `O=NC1C(Cl)C2CC1C1C(Br)C(Br)CC21` (configuration not stated), the TGI is above 100 µM.

For `C/C(=N\Nc1nc2ccccc2s1)c1ncccn1`, the TGI was above 61 µM.

As for `COc1cc2c(c(OC)c1OC)C(=O)[C@H](O)[C@H]2NC(N)=O`, the TGI is above 100 µM.

`CN(C)c1ccc(N=Nc2ccc3nc[nH]c3c2)cc1`: the TGI was above 100 µM.

`Cn1c(/C=C(\O)c2ccc(Cl)cc2)nc2ccccc21` gave a TGI above 100 µM.

On to `O=c1cc(-c2ccccc2)[nH]c2cc(O)ccc12`, for which the TGI is above 100 µM.

As to `COc1cccc(/C=C2/Sc3scc(-c4ccccc4)[n+]3C2=O)c1O`, the TGI was above 100 µM.

`O[C@H]1CO[C@H]2[C@@H]1OC[C@@H]2Oc1ccc(Nc2ccnc(Nc3ccc(O[C@H]4CO[C@H]5[C@@H]4OC[C@@H]5O)c(Cl)c3)n2)cc1Cl`: the GI50 is 1.19 µM and the TGI is 2.48 µM.

`CNC(=O)OCc1c(COC(=O)NC)c(C)n(-c2ccc(Br)cc2)c1C` came in with a TGI of 57 µM.

Turning to `CS(=O)(=O)c1ccc(C(=O)Nc2ccc(Cl)c(-c3ccccn3)c2)c(Cl)c1`, the GI50 was > 100 µM and 10.6 µM; the TGI is above 100 µM.

Consider `O=[N+]([O-])c1cccc(-c2nc3sccn3c2-c2ccnc(NCCCNS(=O)(=O)c3cccc(F)c3)n2)c1`, for which the GI50 is 3.99 µM and the TGI stood at 28.3 µM.

With `C[Si](C)(C)OC1(C#N)C2C3CC4C2C(=O)C2C4C3C21` (configuration not stated), the TGI was above 100 µM.

With `CN(C(=O)Cc1cc(Cl)c(Cl)cc1N=C=S)[C@H]1CCCC[C@@H]1N1CCCC1`, the TGI stood at 29 µM.

As for `O=C(N=S(NC(=O)c1ccccc1)C(Cl)(Cl)Cl)c1ccccc1` (configuration not stated), the TGI was above 100 µM.

Consider `Cc1ccc(-c2cc(-c3ccc(C)cc3)nc(NCCNc3ccnc4cc(Cl)ccc34)n2)cc1`, for which the GI50 was 1.54 µM and the TGI came out at 3.01 µM.

In the case of `CC(=O)NC1=C(OS(=O)(=O)c2ccc(C)cc2)CN(C)C1=O`, the TGI was 32.1 µM.

`CC1=NN(c2ccccc2)C(=O)/C1=C/c1ccc(O)cc1` gave a TGI above 100 µM.

`O=C(NCCCCCCCCNC(=O)c1cc(-c2ccccc2)nc2ccccc12)c1cc(-c2ccccc2)nc2ccccc12` showed a TGI above 100 µM.

`COc1cc(OC)c(OC)cc1/C=N/N=C(\N)NO` showed a TGI above 100 µM.

`Cc1ccccc1N=Nc1ccc(N=Nc2c(O)ccc3ccccc23)c(C)c1`: the TGI was above 100 µM.

Consider `Nn1c(-c2ccccc2Cl)nc2ccccc2c1=O`, for which the TGI was above 100 µM.

Compound `NCCCN(CCCCN(CCCN)Cc1ccc2ccccc2c1)Cc1ccc2ccccc2c1` displayed a TGI of 3.63 µM.

`COc1cc2cc(C(=O)N3CC(CCl)c4ccc(O)cc43)[nH]c2c(OC)c1OC` (configuration not stated) returned a TGI of 6.1 µM.

Turning to `COc1ccc(C2=C(Cl)c3cc(OC)c(OC)cc3C2Cl)cc1OC` (configuration not stated), the TGI turned out to be 43.4 µM.

In turn, `CCOC(=O)C1=C(NC)OC/C1=N\NC(=O)c1ccccc1O` had a TGI above 100 µM.

Turning to `Cc1ccc(C2=NOC3=c4ccccc4=CSC3=C2c2ccc([N+](=O)[O-])cc2)cc1`, the GI50 is 31.1 µM and the TGI was above 100 µM.

In turn, `Cn1cnc2nc(Cl)nc(NC(C)(C)C(C)(C)O)c21` came in with a TGI above 100 µM.

`O=C(N/N=C/c1ccc2c(c1)CCC2)c1ccccc1O` returned a TGI of 66 µM.

As to `O=[N+]([O-])/C=C1\COCc2cc3c(cc21)OCO3`, the TGI was above 100 µM.

For `COc1nc2c(c(=O)n1C)N(C(C)=O)C1C(N2)OCC(OC(C)=O)C1OC(C)=O` (configuration not stated), the TGI is above 10 µM.

For the compound `CN(C)CCNC(=O)c1cccc2c(NCC(=O)O)c3ccccc3nc12`, the TGI amounted to 73.5 µM.

Take `Cc1ccc(/C=N/Nc2cnccn2)s1`: the TGI is above 100 µM.

As for `O=S(=O)(NCCNC/C=C/c1ccc(Br)cc1)c1cccc2cnccc12`, the GI50 is 14.9 µM and 13.4 µM; the TGI is 30.4 µM and 27.6 µM.

On to `CN(C)CCNc1nc(-c2ccc3ccccc3c2)nc2nc[nH]c12`, for which the TGI was 25.3 µM.

For the compound `C=C1CC[C@@H]2[C@](C)(COC(C)=O)[C@@H](O)CC[C@@]2(C)[C@@H]1COc1ccc2ccc(=O)oc2c1`, the GI50 was above 100 µM and the TGI is above 100 µM.

For the compound `CC1(C)CS(=O)(=O)CC(C)(C)C(=N/N)/C1=N\N`, the TGI was above 100 µM.

As to `O=c1cc(-c2cccc(Cl)c2)[nH]c2ncccc12`, the TGI is 54.8 µM.

Take `c1ccc2c(c1)c(NCCCCN1CCCCC1)cc1c3ccccc3c(NCCCCN3CCCCC3)cc21`: the GI50 is 19.1 µM and the TGI came to 44.7 µM.

For `O=C1C=C(Br)c2c(-c3ccccc3)oc3cccc1c23`, the TGI was above 100 µM.

In the case of `C[C@]12CCC3[C@@H](CC[C@@H]4c5nonc5CC[C@]34C)C1CCC(=O)N2` (some centres not stated), the TGI is above 100 µM.

`C=CCc1cc(OC)c2c(c1)C(O)CC(c1ccccc1)O2` (configuration not stated) registered a TGI above 100 µM.

On to `N#C/C(=C\c1c(-c2ccccc2)[nH]c2ccccc12)S(=O)(=O)c1ccccc1`, for which the GI50 was 8.91 µM and the TGI is above 100 µM.

Regarding `CCOC(=O)C(C)(c1cn(C)c2ccccc12)c1cn(C)c2ccccc12`, the TGI is above 100 µM.

Consider `COc1ccc(-c2cc(-c3ccccc3)nc(SCCCC(=O)NO)n2)cc1`, for which the GI50 is 1.42 µM and the TGI was 7.68 µM.

Turning to `C=CC(=O)Nc1cccc(C)c1Nc1cc(-c2cccnc2Cc2c(C)c(OC)cc(OC)c2C)ncn1`, the GI50 is 12.2 µM and the TGI turned out to be 76.8 µM.

Compound `NC(=O)CCCC(NCc1c2ccccc2nc2ccccc12)C(=O)O` (configuration not stated) displayed a TGI above 100 µM.
